The campaign covered roughly 340,000 compounds. About 6,900 (2%) were called active. Rule as the data show it: active = inhibition above about 30%; inactive = below that, where a call was filed. Only a part is listed here, and it is no random draw. Where no call is shown, the source filed none.
The compounds below were run against D(2) dopamine receptor (Homo sapiens) (UniProt P14416) (assay: HTS Assay for Allosteric Antagonists of the Human D2 Dopamine Receptor: Primary Screen for Antagonists). Settings: HEK293 TREx D2 cells, calcium flux, dopamine EC80; at 10 µM; stronger effect = higher value.
UniProt P14416, sequence (P14416 whole entry, looked up): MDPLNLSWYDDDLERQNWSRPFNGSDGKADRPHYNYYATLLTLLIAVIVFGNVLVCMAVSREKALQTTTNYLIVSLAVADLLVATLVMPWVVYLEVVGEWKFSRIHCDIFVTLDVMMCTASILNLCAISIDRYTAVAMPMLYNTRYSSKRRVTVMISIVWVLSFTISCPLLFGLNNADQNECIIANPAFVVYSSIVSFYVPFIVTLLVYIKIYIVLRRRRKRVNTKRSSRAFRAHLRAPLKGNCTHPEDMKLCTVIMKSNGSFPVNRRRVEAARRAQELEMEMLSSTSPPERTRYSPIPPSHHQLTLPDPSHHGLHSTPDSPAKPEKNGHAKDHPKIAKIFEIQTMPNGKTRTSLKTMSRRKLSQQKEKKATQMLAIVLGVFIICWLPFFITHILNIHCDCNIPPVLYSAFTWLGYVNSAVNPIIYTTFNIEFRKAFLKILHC
Outline: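 Calcium flux kinetic readout in an inducible HEK293 TREx D2 line plated overnight at 30 C. After 180 s compound exposure, an EC80 dopamine challenge follows with another 180 s kinetic read to detect antagonism.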
Also: 0% is about no effect.

SMILES | inhibition
O=C1CC(c2cc(F)cc(F)c2)c2cc3c(cc2N1)OCO3 (centres undefined) | -3.32%
O=C(Cn1ccn(-c2ccc(F)cc2)c(=O)c1=O)Nc1ccccc1C(F)(F)F | 7.36%
Cc1ccc(CNCCCSc2nc(C)cc(C)n2)cc1 | active: 63.4%
CCCOc1ccc(NC(=O)CC2C(=O)N(c3ccc(C)cc3)C(=O)N2CCc2ccncc2)cc1 (centres undefined) | 6.7%
O=c1c(NCc2ccccc2Cl)nccn1-c1ccccc1 | 4.15%
Cc1c(NC(=O)c2cc(-c3ccccc3O)on2)c(=O)n(-c2ccccc2)n1C | 14.7%
CC(=O)N1CCc2cc(S(=O)(=O)NC(CC(C)C)C(=O)NCc3ccccc3Cl)ccc21 (centres undefined) | 0.268%
COC(=O)c1sccc1NC(=O)Cc1ccc(Br)cc1 | active: 42.4%
COc1ccc(CNC(=O)CCc2c(C)c3cc4c(C)c(C)oc4cc3oc2=O)cc1 | -6.8%
CCC(=O)N1CCc2cc(Br)cc(S(=O)(=O)N3CCC(C(=O)Nc4ccccc4F)CC3)c21 | 9.62%
CCCCCOc1ccc(Cn2c(=O)oc3ccc(C)cc32)cc1OC | 3.2%
CCOc1ccc(NC(=O)CCNS(=O)(=O)c2ccc3c(c2)CCCC(=O)N3)cc1 | 10.5%
CC(=O)Nc1c(C)nn(-c2ccccc2)c1N1CCC(C(=O)NCc2cccc(Cl)c2)CC1 | 0.848%
COc1cc(Cl)c(NC(=O)CCc2nc3cccnc3n2-c2ccccc2)c(OC)c1 | -13.8%
O=C(CSc1nc2cc3ccccc3cc2[nH]1)Nc1ccc(F)cc1 | -2.23%
CC1=C(C(=O)Nc2ccc(Cl)cc2)C(c2cccs2)n2nc(SCc3cccc(C)c3)nc2N1 (centres undefined) | -7.78%
COCCNC(=S)N(CCc1c(C)[nH]c2ccc(F)cc12)Cc1cccs1 | active: 30%
Cc1ccc(NC(=O)c2cnc(SCC(=O)N3CCCc4ccccc43)n(C)c2=O)cc1 | 0.714%
CC(C)(C)OC(=O)N1CCC(c2c(C(=O)N3CCN(c4ccccc4F)CC3)cnn2-c2ccccc2Cl)CC1 | 1.42%
COc1ccc(OC)c(NC(=O)c2cnc(Nc3ccc(C)c(Cl)c3)c3ccccc23)c1 | -0.939%
CC1CCC(N2CC(=O)N(CCC3=CCCCC3)C(c3ccc(F)cc3)C2=O)CC1 (centres undefined) | 24.6%
O=S1(=O)NC(=NCc2ccccc2)c2ccccc21 | active: 30.5%
CCN(CC)C(=O)Cn1c(=O)n(-c2ccc(C)c(C)c2)c(=O)c2c(C)c(C(=O)N(CC)CC)sc21 | 5.51%
CCN1CCN(C(=O)c2cnn(-c3ccc(F)cc3F)c2C2CCN(C(=O)OC(C)(C)C)CC2)CC1 | -16.5%
CC1CCc2onc(C(=O)N3CCN(c4ccc(F)cc4)CC3)c2C1 (centres undefined) | 6.49%

SMILES | inhibition
CCCCCN1C(C(=O)c2ccccc2)=C(NC(=O)c2ccc(C)cc2)c2ccccc2S1(=O)=O | -7.78%
Cc1cc(=O)n(Cc2ccc(F)cc2Cl)c2c1c(C)nn2C | -3.69%
CC(C)c1ccc(-c2noc(SCC(=O)N3CCCCC3C)n2)cc1 (centres undefined) | -1.32%
Cc1cc(C)cc(OC(=O)c2cc(-c3ccc(Cl)cc3)on2)c1 | -3.85%
Cc1cccc(-c2nc(CCNC(=O)c3ccc(Br)o3)cs2)c1 | 6.67%
Cn1c(SCC(=O)Nc2ccc(Cl)cc2F)nnc1-c1ccco1 | active: 40.4%
O=S(=O)(Nc1ccc(-c2ccc(N3CCCC3)nn2)cc1)c1ccc(C(F)(F)F)cc1 | 10.9%
Cc1ccc(-n2ncc3c(N(C)C)ncnc32)cc1Cl | 18.4%
CCC(Sc1nc(-c2ccccc2)[nH]c1S(=O)(=O)c1ccc(C)cc1)C(=O)O (centres undefined) | 10.6%
COc1ccc(C)cc1NC(=O)Nc1cc(C(=O)NCc2ccc(C)cc2)ccc1N1CCCC1 | 9.58%
Cc1sc(-c2cc3ccccc3oc2=O)nc1-c1ccc(Cl)c(Cl)c1 | -19%
Cc1nnc(N2CCCC(C(=O)NCCN(C)C)C2)c2nn(-c3ccccc3)c(C)c12 (centres undefined) | -1.48%
CCOc1ccc(CNCc2c(C(=O)O)c(C)n(Cc3ccc(C)cc3)c2C)cc1 | -0.934%
CCOc1ccccc1OCCCCn1c(-c2ccc(Cl)cc2)nc2ccccc2c1=O | 3.77%
Cc1cc(C)cc(NC(=O)c2ccc3oc(=O)c(S(=O)(=O)c4ccc(F)cc4)cc3c2)c1 | -4.55%
CCN1CCN(CCCNC(=O)CS(=O)(=O)Cc2nc(-c3ccccc3C)oc2C)CC1 | 7.49%
COc1ccc(N2CCN(C(=O)C3CCN(S(=O)(=O)c4cccc5nonc45)CC3)CC2)cc1 | -19.3%
Cc1ccc(-c2nnc(Nc3ccc(C(N)=O)cc3)c3ccccc23)cc1S(N)(=O)=O | 4.46%
O=C(Nc1ccc(-c2nc3ccccc3o2)c(O)c1)c1ccccc1 | -24.2%
COc1ccc(NC(=O)Cn2c(=O)c3cccn3c3ccccc32)cc1Cl | -20.7%
CCOC(=O)c1noc2ncnc(Nc3cc(Cl)c(OC)cc3OC)c12 | 3.52%
Cc1ccc(C2=CC(c3ccc(Cl)cc3)n3nc(-c4ccc(C)cc4)nc3N2)cc1 (centres undefined) | -5.8%
CC(C)c1ccc(C2c3c(oc4ccc(Cl)cc4c3=O)C(=O)N2CCCN2CCOCC2)cc1 (centres undefined) | -18.4%
COc1cc(NC(=O)CN2C(=O)C(c3ccc(Cl)cc3)=NC23CCCCC3)cc(OC)c1 | -8.85%

From PubChem BioAssay AID485344 (National Center for Advancing Translational Sciences (NCATS), 2010)
